Over roughly 33,000 sequences, “E-score (-0.5 to 0.5)” has its median near -0.035; the highest 2% begin near 0.34. Some of the results follow.

Here are results for 109 sequences from the supplement of paper PMC3334620.

The target of the experiment is T1, Mot3 (UniProt P54785).
T1 sequence: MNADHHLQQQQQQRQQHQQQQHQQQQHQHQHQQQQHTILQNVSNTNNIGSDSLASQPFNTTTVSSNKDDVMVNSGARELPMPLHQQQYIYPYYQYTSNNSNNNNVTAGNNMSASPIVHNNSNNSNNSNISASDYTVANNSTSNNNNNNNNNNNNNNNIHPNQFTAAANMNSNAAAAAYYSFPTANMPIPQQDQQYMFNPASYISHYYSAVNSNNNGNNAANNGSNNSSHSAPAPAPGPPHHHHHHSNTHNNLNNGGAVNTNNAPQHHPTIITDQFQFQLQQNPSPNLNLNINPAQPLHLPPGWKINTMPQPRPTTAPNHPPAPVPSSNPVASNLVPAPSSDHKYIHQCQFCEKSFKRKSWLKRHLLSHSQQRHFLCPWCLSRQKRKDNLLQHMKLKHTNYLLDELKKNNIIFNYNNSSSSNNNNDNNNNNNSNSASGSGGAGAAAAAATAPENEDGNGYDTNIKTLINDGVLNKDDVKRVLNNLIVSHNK
Briefly: PBM E-score (8-mer binding enrichment) (E-score (-0.5 to 0.5)); higher = stronger / more preferred TF binding; most listed sequences are background and not binding sites. The following applies: protein concentration: 200 nM; construct: GST-full length. The method in brief:
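Each ungapped eight-base word and its reverse complement, pooled, received an E-score from the Universal PBM Analysis Suite. Underlying scans, normalised with masliner, recorded fluorescent anti-GST bound to GST-tagged yeast transcription factors. These were applied at about 100-200 nM to universal all-10-mer Agilent arrays double-stranded by primer extension.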
As to CCATAGCA, the “PBM E-score” value is -0.219. Next, GACTGCGC: -0.133; AGTCGGGA: -0.232; AACCCGGC: -0.199. Regarding CGGATGAA, the “PBM E-score” value is -0.0834. Next, CTTTAAAC: 0.162; GCTCTTCA: -0.238; CATACTCA: 0.0609.

As for TAGGGGCA, the “PBM E-score” value is -0.148. As for CTGTCGAA, the figure is 0.125. On to CAAGGAAC, for which the “PBM E-score” value turned out to be 0.43. As for AGGCCAAA, the “PBM E-score” value is -0.028. As to CCGCTCGC, the “PBM E-score” value is -0.325. Turning to CAATGCTA, the “PBM E-score” value is -0.0366.

As to CGTTTGCA, the “PBM E-score” value was -0.0501. Regarding AGCTAACG, the “PBM E-score” value was found to be 0.00459. Next, AAGATTCG: -0.0684; GCTTAAGA: -0.0368. AAAGCAAG: the “PBM E-score” value stood at 0.0192. For AGTGATAA, the “PBM E-score” value was -0.173. As for AAGACCTC, the figure is -0.3; as for TCAGCCGA, -0.216. As for ACCCATAG, the figure is -0.206. On to CTCAAGGA, for which the “PBM E-score” value is 0.0622. As for AAGCGCTG, the figure is 0.00897. As for ACCCGTTA, the “PBM E-score” value was 0.0678. Next, AAATAAGA: -0.00703; ATATAAGA: 0.0589; CCTCGCTA: -0.228. Turning to CTGTTACA, the “PBM E-score” value came to 0.166. As for GCAGGACA, the figure is -0.0645. As for GAAGATCC, the figure is -0.129; as for ACTGCCGC, -0.261.

On to AGTAAAAC, for which the “PBM E-score” value was 0.179. Consider CGTGCATC, for which the “PBM E-score” value is -0.181. With CCCGCGAA, the “PBM E-score” value is -0.162. As for ATCGTAAG, the “PBM E-score” value was -0.0233. In the case of AGATAACA, the “PBM E-score” value was 0.264. Regarding GTGCTCTA, the “PBM E-score” value turned out to be 0.0193. As for CATAGAAC, the figure is -0.0217; as for AACGTTTG, -0.00016; as for CAGCTAGA, -0.154.

For the sequence CCCATGAA, the “PBM E-score” value was -0.0112. As for TCAGGCAA, the figure is 0.483; as for ATGCAGAC, -0.0602; as for ACTTAGAT, 0.0482. Regarding GGACATAC, the “PBM E-score” value turned out to be 0.0426. For AACAAATG, the “PBM E-score” value is 0.149. As for CCTTTTAC, the figure is 0.171; as for CGGAGCTC, -0.228. Next, CTTCCAAA: 0.0856. As for ACACTGGA, the figure is -0.00662. With GCTGTATA, the “PBM E-score” value was determined as 0.145. As for AATCAGCG, the figure is -0.133.

Take AACGCCGT: the “PBM E-score” value was -0.0672.

As to AAATACCT, the “PBM E-score” value was 0.0955.

Turning to CCTATTGC, the “PBM E-score” value stood at 0.0511. Next, CGACCTGA: 0.0446.

Regarding GATCCCAA, the “PBM E-score” value is -0.238.

For GCATGGGA, the “PBM E-score” value came to 0.0073. As for AAATTCTC, the figure is -0.197; as for AAGGAGGA, -0.0237.

For GCCACTGA, the “PBM E-score” value is -0.101.

Consider CCCTTGAG, for which the “PBM E-score” value is -0.225. ATAACTTC: the “PBM E-score” value is 0.0157. Next, GAAGGTTA: 0.00929; AACGTCTA: -0.0565.

As for GGAAAATA, the “PBM E-score” value turned out to be 0.166. Next, GAGCCTGA: 0.26; CCATAACG: -0.1. For ACTAACTG, the “PBM E-score” value is -0.0138. GACATACA: the “PBM E-score” value was found to be 0.218. Turning to ACCCTCGG, the “PBM E-score” value was -0.175.

Turning to CATACTGA, the “PBM E-score” value is -0.00538. As for CATGAGGG, the figure is -0.0409; as for GCCAGAGA, -0.214; as for CATTTGTC, 0.174. Next, GTAGAGGA: -0.099; ACCTGCTA: 0.0839. As for AAGGTTTC, the figure is 0.0811; as for GCCTGGAC, 0.0141. For AGTTGAGG, the “PBM E-score” value is -0.118. As for ACTTATCC, the figure is -0.018.

Turning to ATTTCACG, the “PBM E-score” value was 0.0073. Regarding AGACTAAG, the “PBM E-score” value is -0.0385. In the case of ATTGAATC, the “PBM E-score” value was -0.0365. As for AGAGAAGG, the figure is -0.152; as for CGGAACCC, -0.0527; as for GAGCTTGA, -0.127.

Turning to AGACAAGG, the “PBM E-score” value came out at 0.00418. Next, GCCTTTCA: 0.159; GGAGTCAC: -0.27. As for GTCCGCAA, the figure is -0.234. As to ATGGCAGG, the “PBM E-score” value is -0.0274. For CGCAGCTC, the “PBM E-score” value is -0.164. Next, ACTATGAA: 0.0261; ATGGGCGA: -0.254; ATGGCGGG: -0.294.

Regarding CGCTAGAA, the “PBM E-score” value was -0.156.

Consider CGAGAGGC, for which the “PBM E-score” value was -0.106. Next, ACCTACCA: 0.12. Next, AGGTCGCG: -0.287. As for GCGTCTAA, the figure is -0.0189; as for AAATACTC, -0.103; as for GCGCTTAA, -0.00701. Regarding CGACTTCC, the “PBM E-score” value was -0.0315. Next, TCGTGGCA: 0.142; CGGCAGCA: 0.0161; AGATTCTC: -0.0953.
